Several values for one entry are separate records, joined by “and”; a condition that tells them apart may be missing. Equal values may be shown once. Out of some 420,000 compounds screened, about 64,000 (15%) were called active. Inconclusive means that the source gave no clear call. Such entries were picked first, then a sample of the others. The call rests on the fitted dose curve; in most records, active means well fitted inhibition curve with a large enough effect; inconclusive means small, poorly fitted or top-dose-only effect; inactive means flat fitted curve, though single readings scatter. A potency beside an inconclusive call is a rough fit, not a confirmed value.
Experiment: qHTS for Inhibitors of human tyrosyl-DNA phosphodiesterase 1 (TDP1): qHTS in cells in absence of CPT; further: nearly all actives have a fitted effect of over 55% in size
Settings: DT40 Tdp1-/- hTDP1 cells, no CPT, ATP luminescence, 48 h; activity change, negative = growth inhibition: at 46.2 µM (top of the series) unless noted
Procedure, shortened: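 A cellular qHTS used chicken DT40 cells lacking endogenous Tdp1 but carrying stably transfected human TDP1. Compounds were applied without camptothecin, and cell growth kinetics were judged by ATP-dependent luminescence after ≥48 hr.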
On the % scale 0 is the no-effect control and ±100 the full control effect; potency means the concentration at half of the fitted maximal effect; tags describe the fitted curve by direction and shape.

Row | Structure (SMILES) | activity change, negative = growth inhibition | Potency
1 | Cc1ccc(Sc2cnc3ccccc3n2)cc1 | inactive: -17.4% | –
2 | Cc1ccc(NC(NC(=O)c2ccccn2)C(Cl)(Cl)Cl)cc1 (centres undefined) | – | inconclusive: 8.2 µM [inhibitor, partial curve]
3 | CCc1nnc(NS(=O)(=O)c2ccc(N/C=C\C(=O)c3cccc4ccccc34)cc2)s1 | – | inconclusive: 20.6 µM [inhibitor, single point]
4 | COc1cccc(C(=O)NC2CCN(CC(=O)Nc3ccccc3Cl)CC2)c1 | – | inconclusive: 29.1 µM [inhibitor, single point]
5 | CC1CCN(S(=O)(=O)N2CCC(C(=O)NCc3cccs3)CC2)CC1 | inconclusive: -30.7% [inhibitor] | –
6 | CSCCC(NC(=O)c1ccco1)C(=O)NCC(C)(C)N1CCOCC1 (centres undefined) | inactive: -2.58% | –
7 | CCc1cc(C(=O)N2CCCC(Nc3ccc(F)c(F)c3)C2)n(C)n1 (centres undefined) | inactive: -25.4% | –
8 | CN(CC(=O)Nc1cccc(C(F)(F)F)c1)S(=O)(=O)c1ccc2[nH]c3c(c2c1)CCCC3 | – | inconclusive: 18.4 µM [inhibitor, single point]
9 | CCc1ccc(CN2C(=O)c3ccccc3C2C(=O)NCCc2ccc(OC)c(OC)c2)cc1 (centres undefined) | – | inconclusive: 29.1 µM [inhibitor, single point]
10 | COC(=O)c1ccccc1NC(=O)C1CCN(C(=O)N2CCOc3ccccc32)CC1 | – | active: 23.1 µM
11 | COc1ccc(Cl)cc1NC(=O)C(C)NC(c1ccccc1)c1ccccc1 (centres undefined) | – | inconclusive: 18.4 µM [inhibitor, single point]
12 | COc1cccc(/C=N/NC(=O)CSc2ccccc2C)c1O | – | active: 1.3 µM
13 | COc1cccc(NC(=O)CSc2nc3ccccc3nc2N2CCOCC2)c1 | – | inconclusive: 18.4 µM [inhibitor, single point] and inconclusive: 29.1 µM [inhibitor, single point]
14 | O=C(CSc1ncn[nH]1)Nc1nc(-c2cccc([N+](=O)[O-])c2)cs1 | – | inconclusive: 16.4 µM [inhibitor, single point]
15 | CCCCN(C)C(=O)c1sc(=O)n(Cc2ccccc2C#N)c1C | – | inconclusive: 23.1 µM [inhibitor, single point]
16 | Cc1cc2nc(-c3ccc(SCC(=O)N4CCc5ccccc54)nc3)[nH]c2cc1C | – | active: 23.1 µM
17 | CCc1nc(SCC(=O)Nc2ccc(N(C)C)cc2)c2ccccc2n1 | – | active: 14.6 µM
18 | COc1ccc(Cl)cc1NC(=O)CSc1nccn1Cc1ccco1 | – | inconclusive: 16.4 µM [inhibitor, single point]
19 | COC(=O)[C@]1(Sc2ccc(OC)cc2)CC(=O)N[C@@H]1c1ccccc1 | – | active: 18.4 µM

Reference: PubChem BioAssay AID686978 (National Center for Advancing Translational Sciences (NCATS), 2013)
